# Read counts are not given, so values of variants with three or more changes are uncertain.
# B1: LINE1-mini (parent)
# chain: GGCAGAGCUCAACACAGCGUGGCAAAGUGGCUGUGGCUAGACUGCC
# Variants of: B1
# Assay: self-cleavage, relative activity (ratio to wild type); higher = more cleavage; in vitro, sequencing; the parent is a self-cleaving ribozyme
row,Variant,self-cleavage
1,GGCAGAGCUCCACACAGCAAGGCAAAGGGCCUGUGGCUAGACUACC,0.01
2,GGAAGAGCUCAACACAGUGUGGCAAUGUGGCUGUGGGUAGACUGCC,0.01
3,GGAAGAACUCAACACAGCGUGCCAAAGUGGCUGUGGCUAGACUGCC,0.27
4,GGCAGAGCUAAACAGAGCGUGGCAAAGUGGCUGUGGCUAGAUUGCC,0.01
5,GGCAGGGCUCAACACAGCGUGGCAAAGUGGCUGUGGAUGGAGCGCC,0.01
6,GGGUGACCUCAACACAGCGUGGCAAAGUGUCUGUGGCUAGACUGCC,0.06
7,GGCAGAGGUUAACACAGCGUGGCUAUGUGUCUGUGGCUAGAACGCC,0.02
8,UGCAGAACUAAACACAGCGUGGCAAAGUGGCUGUGGCUAGACUGCC,0.01
9,UGCAGAGCUCAACACAGUAUGGCAAAGUGGCUGUGGAUAGACUUCC,0.25
10,GUCAGAGUUCAACACAGCGUGGCACAGUAGCUGUGGCUAGAUUGCC,0.03
11,GCCAGCGCUCAACACAGCGUGGCAAAGUGGCUGUGGCUAGACUCCC,0.24
12,GGUAGAGCUCAACACAGCGUGGCAAAGUGGCUGUGGCUAGUCAGCC,0.09
13,GGCCCAGCUAAACACAGCGUGGCAAAGUGGCUGUGGCUAGACUGCC,0.03
14,GGUAGAGCUAAACACAGCGUGCCAAAGUGGCUGUGGCUAGACUUCC,0.03
15,GGCAGAACUCAACACAGAGUGGCAACGUGGAUGUGGCUAGACUGCC,0.01
16,GGCAGAGCCCAACACAGCGCGGCAAAGAGUCUGUGGCUAAACAGCC,0
17,GGCAGAGCUCAACACACCGCGGAAAAGUGGCUGUGGCUAGACUGCC,0.87
18,GGCAAAGCUCAACACAGCGUGGCUAAGUGGAUGUGGCUUGACUGCC,0.02
19,GGCAGAGCUCAACCCAGACUGGCAAAGUGGCUGUGGCUAGACUGCC,0.19

row,Variant,self-cleavage
1,GGCAGAGCUCAAUAUAGCGUGGUAAAGUGGCUGUGGCUAGACUGCC,0.38
2,GGCAGAGCUCAAAACAGCGUGGCACAGUGGCUGUGGCUAGACGGCG,0.06
3,GGCAGUGCUCAACACAUCUGGGCAUAGUGGCUGUGGCUAGACUGCC,0.12
4,GGCAGCGCUCAACCCAGCGUGGCAAAGUGGCUGUGGGUAGACAGCC,0.11
5,GGCAGAGGUCAACACAGCCUGGCAAAGUGGCUGGUGCUAGACUGCC,0.01
6,GGUAGAGCUCAACAGAGCGUGGCGAAGUGGCUGUGGCUAGACUGCC,0.04
7,GGCAGAGAUCGACACAGCGAGGUAAAGUGGCUGUGGCUAGACUGCC,0.02
8,GGCAGAGCUAACCACGGCGUGGCAAAGUGGCUGUGGCUAGACUGCC,0.03
9,GGCAUAGCUCAACACACCGUGGAAAAGUGGCUGUGGCUAGACUGCC,0.06
10,GUCAGAGCUCAACACAGCGUGGCAAGGUGGCUGUGGCUAUACUGCC,0.03
11,GGCAGAGGUCGGCACAGCGUGGCAAACUGGCUGCGGCUAGACUGCC,0.01
12,GGCAGAGCUCAAUACAGCGUGGCAAAGUGGCUGUGGGUAGAUUGCC,0.02
13,GGCAGAGCUCAACACAGCGUGGCAAAGUGGGUGUGGCUAUACUGUC,0.06
14,GGCAGAUCUCAACACAGCGGGGCGAAGUUUCUGUGGCUAGACUGUC,0.1
15,GGCAGAGCUCAAAACAGCGUGACAAAGUGCCUGUGGUUAGACUGCC,0.05
16,GGCUGAGCUCAACACAGAGCGGCAAAGUGUCUGUGGCUAGACUGUC,0.12
17,GGCAGAGCUCAACACAGCGUUGCAAAGUGGCUGUGGCUAGGCUGAC,0.04
18,UGCAGACCUCCACACAGCGUGGCAAAGUGGCUGUGGCUAGACUGCC,0.03
19,GGCAGAGCUCAACACAGCGUGGCAAAGUAGCUGUAGUUAGACUGCC,0.01

row,Variant,self-cleavage
1,GGCAGAGGUCAACACAGCGUGGCAAAGUGUCGGUGUCUAGACUGCC,0.28
2,GGCAGAGCUCAACACAGCUUGGAAAAGUGGCUGGGGCUAGACUGCC,0.41
3,GGCAGAGAUCAACAUUGCAUGGCAAAGUGGCUGUGGCUAGACUGCC,0.73
4,GGGAGAGCUAAACACAGCGUGGCAAAGUGGCUGUGGCUAGAUUGCC,0.01
5,GGAAGAGCUCAAAACAGCGCGGCAAAGUGGCUGUGGGUAGACUGGC,0.1
6,GGCAGAGCUCUCCAGAGCGUGGCAAAGUGUCUGUGGCUAGACUGCC,0
7,GGCAGAGCUCAACACAGCGUGGCACAAUGGAUGUGGCUAGACUGUC,0.16
8,GGCAGAGCUCAACACAGCGUGUCCAAGUGGAGGUGGCUAGACUGCC,0.06
9,GGCAAAGCUCCACACAGCGUGGCAAAGUGGCUUUGGUUAGACUGCC,0.03
10,GGCGGAUCUCAACACAUCGUGGCAAAGUGGCUGUGGCUAGACUGCC,0.07
11,GGCAGACGUAAACCCAGCGAGGUAAAGUGGCUGUGGGUAGACUGCC,0.01
12,GGCAGAGCUCGCCACAGCGUGGGAAAGUGGCUGUGGCUAGAGUGCC,0
13,UGCACAGCUCAGCACAGAGUGGCAAAGUGGCUGUGGCUAGACUGCU,0.02
14,GGCAGAGCUCAACACAGCGUGGCAAAGUGGCUAUGGCUCGACUAGC,0.03
15,GGCAUAGAUAAACACAUCGUGGCAAAGUGGCUGUGGCUAGACUGCC,0.09
16,GGCAGAGCUCAAGACAGCGUGGCAAAGUGGGUGUGCCUAGACUGCC,0.02
17,GGCAGAGCUAAACACAGCGUCGCCAGGUGUCUGUGGCUAGACUGCC,0.03
18,GGCAGAGCUCAACAUAGCGUGGCAAAGUGGCUGUGGCGAGACUGUC,0.03
